{"source": "PubChem BioAssay AID686979", "about": "(National Center for Advancing Translational Sciences (NCATS), 2013)", "note": "Hit rate of the full screen: of about 420,000 compounds, about 50,000 (12%) were called active. The inconclusive results got no clear call from the source; some entries with a clear call stand among them for comparison. The call rests on the fitted dose curve; in most records, active means well fitted inhibition curve with a large enough effect; inconclusive means small, poorly fitted or top-dose-only effect; inactive means flat fitted curve, though single readings scatter. Potencies of inconclusive entries are left out as doubtful fits. On the % scale 0 is the no-effect control and ±100 the full control effect; potency means the concentration at half of the fitted maximal effect; tags describe the fitted curve by direction and shape.", "data": [{"experiment": "qHTS for Inhibitors of human tyrosyl-DNA phosphodiesterase 1 (TDP1): qHTS in cells in presence of CPT; further: nearly all actives have a fitted effect of over 55% in size", "conditions": "chicken DT40 Tdp1-/-;hTDP1 cells + 20 nM CPT, ATP luminescence, 48 h; activity change, negative = growth inhibition: at 46.2 µM (top of the series)", "method_in_brief": "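Chicken DT40 Tdp1-/- cells complemented with human TDP1, 400 cells/well, exposed to compounds plus 20 nM camptothecin for at least 48 h at 37 C; viability read as ATP content by CellTiter-Glo luminescence.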", "values": [{"compound": "O=C1/C(=C/c2cccc(Br)c2)SC(=S)N1/N=C/c1cc([N+](=O)[O-])ccc1O", "Potency": "active: 23.1 µM"}, {"compound": "COc1ccc(/C=N/NC(=O)c2ccc(N(C)S(=O)(=O)c3ccccc3)cc2)cc1OC", "Potency": "inconclusive [inhibitor, single point]"}, {"compound": "CCOc1cc(NC(=S)Nc2cccc(OC)c2)c(OCC)cc1NC(=O)c1ccc(C)cc1", "Potency": "inconclusive [inhibitor, single point]"}, {"compound": "C=CCn1c(SCC(=O)NCC2CCCO2)nc2scc(-c3ccco3)c2c1=O", "note": "(stereo not given)", "Potency": "inconclusive [inhibitor, partial curve]"}, {"compound": "CC(C)CCNC(=O)CCc1nnc(COc2ccccc2)o1", "activity change, negative = growth inhibition": "inactive: -0.564%"}, {"compound": "COc1ccccc1/C=C\\C(=O)OC[C@@H]1CCCN2CCCC[C@H]12", "activity change, negative = growth inhibition": "inactive: 13.5% [at 9.04 µM]"}, {"compound": "CCN1CCN(CCCNC(=O)c2cnn(-c3ccc(C)cc3C)c2C2CCN(C(=O)OC(C)(C)C)CC2)CC1", "Potency": "inconclusive [inhibitor, single point]"}, {"compound": "NC(=O)c1nc(-c2ccc(F)c(F)c2)nc2c1[nH]c(=O)n2-c1cccc(Cl)c1", "Potency": "inconclusive [inhibitor, partial curve]"}, {"compound": "CCOC(=O)[C@H]1[C@H]2COc3ccccc3[C@@H]2N2C(=O)c3cc(Br)ccc3NC(=O)[C@@]12C", "activity change, negative = growth inhibition": "inactive: -15.4%"}, {"compound": "O=C1C2CCCCC2C(=O)N1c1ccc(NC2CCCCC2)c([N+](=O)[O-])c1", "note": "(stereo not given)", "Potency": "inconclusive [inhibitor, partial curve, poor fit]"}, {"compound": "O=C(NCc1ccco1)/C(=C/c1cccc(C(F)(F)F)c1)c1nc2ccccc2[nH]1", "Potency": "active: 9.2 µM"}, {"compound": "COc1cc(N/N=C/c2ccccc2O)ncn1", "Potency": "active: 1.64 µM"}, {"compound": "COc1cc(/C=C2\\SC(=S)N(CCC(=O)Nc3ccc(O)cc3)C2=O)cc(OC)c1OC", "Potency": "inconclusive [inhibitor, single point]"}, {"compound": "CN(C)S(=O)(=O)c1cccc(C(=O)NC2CCCc3ccccc32)c1", "note": "(stereo not given)", "Potency": "inconclusive [inhibitor, single point]"}, {"compound": "Cc1ccc(S(=O)(=O)NCCC(=O)N2CC(C)OC(C)C2)cc1C", "note": "(stereo not given)", "activity change, negative = growth inhibition": "inactive: 6.55%"}, {"compound": "CSc1nc2sc3c(c2c(=O)n1Cc1ccccc1)CCC(C(C)(C)C)C3", "note": "(stereo not given)", "activity change, negative = growth inhibition": "inactive: -14.9%"}, {"compound": "CN1CCC(OC(c2ccccc2)c2ccc(Cl)cc2)C1", "note": "(stereo not given)", "Potency": "inconclusive [inhibitor, single point]"}, {"compound": "COc1ccccc1N1CCN(S(=O)(=O)c2ccc(-c3ccc(=O)[nH]n3)o2)CC1", "activity change, negative = growth inhibition": "inconclusive: -32.5% [inhibitor]"}, {"compound": "C=CCOC(=O)C1=C[C@@H](c2ccc(Br)cc2)C[C@@H](OCc2ccc(CO)cc2)O1", "Potency": "inconclusive [inhibitor, partial curve]"}, {"compound": "O=C(COC(=O)c1cc(-c2ccccc2)nc2ccccc12)c1ccc(Br)cc1", "Potency": "inconclusive [inhibitor, single point]"}, {"compound": "O=C(NCc1ccccc1)C1=C[C@H](C2CCCCC2)C[C@H](OCCCCO)O1", "Potency": "inconclusive [inhibitor, single point]"}, {"compound": "CCOC(=O)C(=O)/C(=C\\N(C)C)c1onc(-c2c(Cl)cccc2Cl)c1C(=O)OC", "Potency": "inconclusive [inhibitor, single point]"}, {"compound": "O=S(=O)(Nc1nc2ccccc2nc1NCC1CCCO1)c1cccc(Cl)c1", "note": "(stereo not given)", "Potency": "inconclusive [inhibitor, single point]"}, {"compound": "COc1ccc(CCC(=O)NCCS(=O)(=O)N2CCN(c3ccccc3F)CC2)cc1", "Potency": "inconclusive [inhibitor, single point]"}, {"compound": "COc1cc(/C=C/C(=O)O)cc(S(=O)(=O)Nc2ccc3c(c2)OCO3)c1OC", "Potency": "inconclusive [inhibitor, full curve, poor fit]"}, {"compound": "O=C(NCC[C@H]1CC[C@@H](NC(=O)C2CCOCC2)[C@@H](CO)O1)Nc1ccc(Cl)cc1", "activity change, negative = growth inhibition": "inactive: 8.78%"}, {"compound": "Cc1nc2sc(C(c3ccccc3)N3CCN(c4ccccc4F)CC3)c(O)n2n1", "note": "(stereo not given)", "Potency": "inconclusive [inhibitor, single point]"}, {"compound": "CC(C)C[C@@H](CNCC(=O)[C@H](CC(C)C)NC(=O)c1[nH]cnc1C(=O)N[C@@H](C)CN)NC(=O)c1nc[nH]c1C(=O)N[C@@H](CC(C)C)C(=O)O", "Potency": "inconclusive [inhibitor, single point]"}, {"compound": "COC(=O)C1=C[C@@H](C(=O)OC)C2C3=C(C(=O)C24CCCCC4)[C@H](C)n2c(=O)n(-c4ccccc4)c(=O)n2[C@@H]3C1", "note": "(stereo not given in full)", "Potency": "inconclusive [inhibitor, single point]"}, {"compound": "C=CCn1c(SCC(=O)Nc2c(C)n(C)n(-c3ccccc3)c2=O)nc2sc(C)c(-c3ccccc3)c2c1=O", "Potency": "active: 29.1 µM"}, {"compound": "COc1cc(-c2noc(C3CCCN(C(=O)c4ccccc4)C3)n2)cc(OC)c1OC", "note": "(stereo not given)", "Potency": "inconclusive [inhibitor, partial curve, poor fit]"}, {"compound": "C=CCNC(=S)NS(=O)(=O)c1cccs1", "activity change, negative = growth inhibition": "inactive: -1.21%"}, {"compound": "C[C@H](CO)N1C[C@H](C)[C@@H](CN(C)S(=O)(=O)c2cn(C)cn2)Oc2ccc(NC(=O)Cn3cnnn3)cc2C1=O", "activity change, negative = growth inhibition": "inactive: 5.21%"}, {"compound": "CC(C)(O)CNC(=O)C(Cc1ccccc1)N1C(=O)c2ccccc2C1=O", "note": "(stereo not given)", "activity change, negative = growth inhibition": "inactive: 0.0426%"}, {"compound": "CCN=C1Sc2nc3ccc(OCC)cc3cc2CN1CCOC", "Potency": "inconclusive [inhibitor, partial curve]"}, {"compound": "CCOc1ccccc1NC(=O)CN1C(=O)COc2ccc(S(=O)(=O)NC3CCCC3)cc21", "Potency": "active: 25.9 µM"}, {"compound": "CCc1ccccc1NC(=O)c1ccc2c(c1)nnn2C1CCCC1", "Potency": "active: 25.9 µM"}, {"compound": "CN(C)/C=C\\C(=C/C(=O)C(F)(F)F)Nc1ccccc1Oc1ccccc1", "Potency": "inconclusive [inhibitor, single point]"}, {"compound": "CNc1ccc(S(=O)(=O)NCC(=O)NCCCc2ccccc2)cc1[N+](=O)[O-]", "Potency": "inconclusive [inhibitor, single point]"}, {"compound": "COc1cc(Cl)c(C)cc1NC(=O)COC(=O)C1=NN(c2ccccc2)C(=O)CC1", "activity change, negative = growth inhibition": "inactive: 5.91%"}, {"compound": "O=C(O)COc1ccc(/C=N/NC(=O)c2cn(-c3ccccc3)nc2-c2ccccc2)cc1", "Potency": "inconclusive [inhibitor, partial curve]"}, {"compound": "COc1ccccc1CNC(=O)CCC1N=C2c3ccccc3N=C(SCc3ccc(Cl)cc3)N2C1=O", "note": "(stereo not given)", "Potency": "inconclusive [inhibitor, single point]"}, {"compound": "O=C1CCCN1CCC1CCN(C2CC(=O)N(c3ccc(F)cc3)C2=O)CC1", "note": "(stereo not given)", "Potency": "active: 18.4 µM"}, {"compound": "C[C@@H]1CC[C@H]2C(=O)N3[C@@H](CC[C@@H](C)[C@@H]3c3ccc(Br)cc3)C(=O)N2[C@H]1c1ccc(Br)cc1", "Potency": "inconclusive [inhibitor, single point]"}, {"compound": "C=CCOC(=O)C1=C[C@@H](c2csc3ccccc23)C[C@@H](OCCCCO)O1", "activity change, negative = growth inhibition": "inactive: -25.2%"}, {"compound": "COc1ccccc1N1CCN(Cc2cc(=O)oc3ccccc23)CC1", "Potency": "inconclusive [inhibitor, single point]"}, {"compound": "Cc1cccc(Oc2nc(-c3ccccn3)nc3ccccc23)c1", "Potency": "active: 1.16 µM"}, {"compound": "Cc1cccc(NC(=O)c2nc[nH]c2C(=O)NCCCCNC(=O)c2[nH]cnc2C(=O)Nc2cccc(C)c2)c1", "Potency": "active: 14.6 µM"}, {"compound": "O=C1NC(Cc2ccccc2)c2nc3ccccc3c(=O)n2-c2cc3ccccc3cc21", "note": "(stereo not given)", "Potency": "active: 13 µM"}, {"compound": "CCN(CC)C(=O)c1ccc(CS(=O)(=O)c2ccc(Br)cc2)cc1", "activity change, negative = growth inhibition": "inactive: -26.8%"}, {"compound": "Cc1cccc(C(=O)NNC(=O)c2cc3cc4ccccc4nc3s2)c1", "Potency": "inconclusive [inhibitor, single point]"}, {"compound": "CCCCCNC(=O)c1cn(CC)c2cc(N3CCN(C)CC3)c(F)cc2c1=O", "activity change, negative = growth inhibition": "inactive: -2%"}, {"compound": "COc1ccc2c(c1)OC[C@H]1[C@H]2N2C(=O)c3ccccc3NC(=O)[C@@]2(C)[C@H]1c1ccccc1", "Potency": "inconclusive [inhibitor, single point]"}, {"compound": "CCOC(=O)N1CCC(NS(=O)(=O)c2cc3c(cc2Br)CCN3C(=O)CC)CC1", "Potency": "inconclusive [inhibitor, single point]"}, {"compound": "CCC(C)n1nnc2c(=O)oc3ccccc3c21", "note": "(stereo not given)", "activity change, negative = growth inhibition": "inactive: -0.719%"}, {"compound": "CCOC(=O)c1c(C)c(-c2ccccc2)n(CC(=O)Nc2cc(C)cc(C)c2)c1C", "Potency": "inconclusive [inhibitor, single point]"}, {"compound": "C=CCSC1=N/C(=C\\c2cc(OCC)c(OC(C)=O)c([N+](=O)[O-])c2)C(=O)S1", "Potency": "active: 16.4 µM"}, {"compound": "COc1ccc(CCN(C)C(=O)C2CCN(Cc3ccc(C)cc3)CC2)cc1OC", "activity change, negative = growth inhibition": "inactive: -12.5%"}, {"compound": "CN(C(=O)Nc1cccc(C(F)(F)F)c1)C1CCCCC1", "activity change, negative = growth inhibition": "inactive: -0.441%"}, {"compound": "CC(C)C(=O)Nc1ccc(N2CCOCC2)c(S(=O)(=O)Nc2ccccc2Cl)c1", "Potency": "inconclusive [inhibitor, partial curve, poor fit]"}, {"compound": "O=C(N1CCN(Cc2ccccc2)CC1)C(Cl)(Cl)Cl", "activity change, negative = growth inhibition": "inactive: 7.92%"}, {"compound": "Cc1ccc(C)c(C(=O)O/N=C(\\N)c2ccc(Br)cc2)c1", "Potency": "inconclusive [inhibitor, single point]"}, {"compound": "CCOC(=O)[C@]12CCC=C1N(Cc1ccc3c(c1)OCO3)C(=O)[C@H](CC(=O)NCCCCc1ccccc1)C2", "Potency": "inconclusive [inhibitor, single point]"}, {"compound": "Cc1ccc(S(=O)(=O)c2cc(Nc3ccccc3)ccc2O)cc1", "Potency": "inconclusive [inhibitor, single point]"}, {"compound": "O=C1CCCc2cc(S(=O)(=O)NCC3CCC(C(=O)NCc4ccc(F)cc4)CC3)ccc2N1", "note": "(stereo not given)", "Potency": "inconclusive [inhibitor, single point]"}]}]}
